Target: N-terminally 3Flag-tagged Cdc20 (the Cdc20 of recombinant MCC) (human, UniProt Q12834)
Assay: pull-down

Chain of UniProt Q12834 (Q12834 whole entry): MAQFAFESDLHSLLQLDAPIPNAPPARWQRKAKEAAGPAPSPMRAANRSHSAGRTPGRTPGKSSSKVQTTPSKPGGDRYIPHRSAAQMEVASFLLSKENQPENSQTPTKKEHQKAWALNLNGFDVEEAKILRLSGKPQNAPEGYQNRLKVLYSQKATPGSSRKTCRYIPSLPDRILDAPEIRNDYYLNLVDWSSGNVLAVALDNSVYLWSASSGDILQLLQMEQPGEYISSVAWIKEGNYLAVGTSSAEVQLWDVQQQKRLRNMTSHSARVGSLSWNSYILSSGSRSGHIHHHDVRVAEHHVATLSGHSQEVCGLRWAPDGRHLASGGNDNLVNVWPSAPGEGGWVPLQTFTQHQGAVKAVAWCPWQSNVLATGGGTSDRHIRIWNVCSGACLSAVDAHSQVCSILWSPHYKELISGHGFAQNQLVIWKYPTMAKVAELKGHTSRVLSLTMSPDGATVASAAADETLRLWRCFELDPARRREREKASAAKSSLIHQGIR

- binding result: binds
B1: Mad2 (of recombinant MCC) (natural protein)
chain: not shown

Source: article PMC7289404 (Nature chemical biology, 2020)
